# Experimental data taken from article PMC4336329 (PLoS ONE, 2015).
# Screen size: about 310,000 compounds; about 2,200 (0.71%) showed an effect of 50% or more. The effect is printed as a negative number. Some of the results follow.
# Target: human ether-à-go-go-related gene (hERG) potassium channel (human, UniProt Q12809)
# Assay: primary screen, population patch clamp on CHO cells stably expressing hERG
# Sequence of human ether-à-go-go-related gene (hERG) potassium channel (Q12809 whole entry, looked up): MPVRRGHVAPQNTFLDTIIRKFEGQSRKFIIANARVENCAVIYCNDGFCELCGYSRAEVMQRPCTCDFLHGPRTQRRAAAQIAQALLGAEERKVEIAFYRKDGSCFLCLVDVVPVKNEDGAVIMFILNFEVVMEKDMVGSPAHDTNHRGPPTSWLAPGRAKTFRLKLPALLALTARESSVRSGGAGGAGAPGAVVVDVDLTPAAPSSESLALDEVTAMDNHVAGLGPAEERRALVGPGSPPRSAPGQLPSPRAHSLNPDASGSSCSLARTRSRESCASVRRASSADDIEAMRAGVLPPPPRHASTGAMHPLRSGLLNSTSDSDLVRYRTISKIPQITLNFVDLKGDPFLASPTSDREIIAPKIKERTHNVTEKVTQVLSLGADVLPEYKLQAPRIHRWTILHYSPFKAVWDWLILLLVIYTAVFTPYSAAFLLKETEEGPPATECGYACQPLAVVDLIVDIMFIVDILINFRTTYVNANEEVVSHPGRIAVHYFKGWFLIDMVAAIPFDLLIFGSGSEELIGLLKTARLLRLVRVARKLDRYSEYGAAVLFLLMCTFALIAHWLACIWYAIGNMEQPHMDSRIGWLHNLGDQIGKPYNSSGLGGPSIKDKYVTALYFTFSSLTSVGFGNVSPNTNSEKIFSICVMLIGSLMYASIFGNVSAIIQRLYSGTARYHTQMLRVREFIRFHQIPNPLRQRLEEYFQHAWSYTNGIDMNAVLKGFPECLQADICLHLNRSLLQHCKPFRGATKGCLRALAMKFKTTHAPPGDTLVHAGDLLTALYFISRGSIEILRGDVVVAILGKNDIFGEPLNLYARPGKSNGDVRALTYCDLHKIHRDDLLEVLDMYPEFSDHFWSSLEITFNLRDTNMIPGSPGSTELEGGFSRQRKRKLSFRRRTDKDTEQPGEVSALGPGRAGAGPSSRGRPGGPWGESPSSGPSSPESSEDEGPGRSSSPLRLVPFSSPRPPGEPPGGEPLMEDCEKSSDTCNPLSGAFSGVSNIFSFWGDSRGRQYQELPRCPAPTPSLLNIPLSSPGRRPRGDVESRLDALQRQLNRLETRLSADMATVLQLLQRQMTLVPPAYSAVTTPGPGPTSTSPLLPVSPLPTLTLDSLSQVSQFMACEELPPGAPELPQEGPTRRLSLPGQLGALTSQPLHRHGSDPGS
row,SMILES,"hERG current change (%, negative = inhibition) at 1uM [%]"
1,COCCNC(=O)c1onc(CSc2cccc(C)c2)c1C(=O)O,10.3
2,O=C(CSc1nc2ccccc2c(=O)[nH]1)Nc1nc(-c2ccc(Br)cc2)cs1,5.56
3,O=C(CN1CCN(Cc2ccc(F)cc2Cl)CC1)NCc1ccccc1,-5.2
4,Cc1c(C#N)c(N=CN(C)C)c(C(=O)c2ccc(Br)cc2)n1-c1ccc(Cl)cc1,14
5,c1ccc2[nH]c(C3CC3)nc2c1,12
6,Cc1nnc2sc(-c3ccncc3)nn12,6.89
7,N#CC(C#N)=C1C=CC=CN1/C(=C\c1ccccc1Cl)C(=O)c1ccccc1,19.2
8,CC(C)NC(=O)CCCc1c[nH]c2ccccc12,4.22
9,CCOC(=O)C(O)(c1ccc(N=c2ccccn2C)cc1)C(F)(F)F (stereo not drawn),9.31
10,Cc1cc([N+](=O)[O-])nn1CC(=O)Nc1ccc(Cc2ccncc2)cc1,5.04
11,CC1CCN(CC(C)CNC(=O)c2cc(-c3ccccn3)nc3ccccc23)CC1 (stereo not drawn),-34.9
12,COc1ccc(-c2nc(CSCC(=O)N3CCc4ccccc43)c(C)o2)cc1OC,7.64
13,CC[C@@H](CO)NC(=O)[C@@H]1C=C2c3cccc4c3c(cn4C)C[C@H]2N(C)C1.O=C([O-])/C=C\C(=O)[O-],4.58
14,COc1ccccc1C1CC(c2ccccc2)=NN1C(=O)c1ccccc1 (stereo not drawn),10.4
15,O=C(Nc1ccc([N+](=O)[O-])cn1)c1cc(-c2cccc(Cl)c2)nc2ccccc12,3.09
16,CC1Sc2ccc(S(=O)(=O)N3CCC(C(=O)NCC(C)c4ccccc4)CC3)cc2NC1=O (stereo not drawn),-1.4
17,Cc1cc(C)c(S(=O)(=O)N2CCCC(C(=O)NCc3ccncc3)C2)c(C)c1 (stereo not drawn),0.443
18,O=C(O)C1CCCN(S(=O)(=O)c2ccc3c(c2)OCCO3)C1 (stereo not drawn),25
19,O=C(NCc1cccs1)c1ccncc1,5.76
20,N#Cc1cc2ccccc2n2nnnc12,9.51
21,COCCn1c(SC(C)C(=O)NC2CCCCC2C)nc2ccccc2c1=O (stereo not drawn),10.9
22,COC(=O)c1ccc(C(=O)OC)c(NC(=O)COC(=O)C2CCCCC2)c1,8.49
23,O=C(Nc1ccccc1Oc1ccccc1)c1cc([N+](=O)[O-])ccc1Cl,12.7

row,SMILES,"hERG current change (%, negative = inhibition) at 1uM [%]"
1,COc1ccc2[nH]c3c(NCCCOC(C)C)ncnc3c2c1,22.8
2,CCOC(=O)c1cnn(-c2ccccc2)c1NC(=O)CCl,12.8
3,COc1ccc(-c2ccc3ccccc3n2)cc1,13.5
4,C/C(Cc1ccccc1)=N/NC(=O)CCCC(=O)N/N=C(/C)Cc1ccccc1,13.5
5,COc1ccc(NC(C)C(=O)N/N=C/c2c(O)ccc3ccccc23)cc1 (stereo not drawn),18
6,COc1ccc(OCc2cc(C(=O)NCCCc3ccccc3)no2)c(Cl)c1,0.936
7,O=C(c1sc2ccccc2c1Cl)N(Cc1ccccc1)C1CCS(=O)(=O)C1 (stereo not drawn),13.1
8,O=C(O)c1ccc(NS(=O)(=O)c2cc(Cl)ccc2Cl)cc1O,4.19
9,CCOC(=O)C(NC(=O)c1ccc(F)cc1)(Nc1nnc(C)s1)C(F)(F)F (stereo not drawn),5.12
10,Br.CC1(C(=O)CSc2nc3ccccc3s2)CCC(=O)O1 (stereo not drawn),4.75
11,Cc1cc(C)c2c(c1)c(C)cc1nnc(SCC(=O)c3cccs3)n12,2.84
12,Nn1c(SCC(=O)Nc2ccc3c(c2)OCO3)nnc1C(F)(F)F,9.88
13,Cc1nn(C)c(C)c1S(=O)(=O)N1CCC(C(=O)NC2CCCc3ccccc32)CC1 (stereo not drawn),3.25
14,O=C(NCCc1ccc2c(c1)OCCO2)c1cc(F)cc(F)c1,0.314
15,COc1ccc(Cl)cc1NC(=O)CCN1CCN(c2ccccc2C)CC1,9.59
16,COc1ccccc1CNc1cncnc1,13.6
17,CCn1c(=S)sc2c(=O)n(-c3ccccc3)c(SC)nc21,9.01
18,CCn1c(=N)c(C(=O)NCCCOC)cc2c(=O)n3cccc(C)c3nc21,-47
19,CCN1C(=O)[C@H]2[C@@H](c3ccc(Cl)cc3)N3C(=O)CN(Cc4ccccc4)C(=O)[C@@]3(C)[C@H]2C1=O,10.9
20,O=C(N/N=C/c1ccsc1)c1cc(O)cc(O)c1,10.2
21,O=S1(=O)NC2c3ccccc3CC2O1 (stereo not drawn),14.5
22,Cc1ccc(S(=O)(=O)N2CCC(NC(=O)c3ccccc3)CC2)cc1,-0.351
23,O=C(Nc1ccc2ncccc2c1)c1ccccc1Cl,6.96

row,SMILES,"hERG current change (%, negative = inhibition) at 1uM [%]"
1,CCOC(=O)C1C2C=CC3(CN(c4ccccc4CC)C(=O)C13)O2 (stereo not drawn),9
2,CCCS(=O)(=O)N1CCCC(C(=O)Oc2ccc(OC)cc2)C1 (stereo not drawn),17.6
3,Cc1ccc(NC(=O)CCC(=O)c2cccs2)c(Br)c1,12.5
4,CCCc1[nH]nc2c1C(c1cc(OC)cc(OC)c1)C(C#N)=C(N)O2 (stereo not drawn),-2.26
5,CC1CCN(CCOc2ccc(OCc3ccccc3)cc2)CC1.O=C(O)C(=O)O,-9
6,O=C(CN1C(=O)/C(=C\c2cccc(Br)c2)Oc2ccccc21)NCC1CCCO1 (stereo not drawn),17.8
7,C=CCN1CN(Cc2ccco2)CNC1=S,-3.72
8,CCOC(=O)N1CCC(NC(=O)Cc2ccccc2)CC1,15.5
9,CC(=O)c1ccc(NC(=O)COC(=O)c2ccc(F)cc2F)cc1,14.1
10,Cc1ccc(C(=O)c2ccc(C(F)(F)F)cc2)cc1,6.9
11,COC(=O)c1cc2c(cc1Cl)N1CCCCCC1=NS2(=O)=O,10
12,O=C(Nc1ccccc1N1CCCCC1)c1ccccc1F,-5.76
13,CCCCCCOc1ccc(N2C(=O)CC(N(CCc3ccc(S(N)(=O)=O)cc3)C(C)=O)C2=O)cc1 (stereo not drawn),16.7
14,COc1ccc2[nH]c(=O)c(CNc3cc(C)ccc3C)cc2c1,7.72
15,O=C(CSc1ncccn1)N/N=C/c1cccc(OC2CSC2)c1,13.5
16,COc1ccc(/C=C2/CCc3ccccc3C2=O)cc1CN1CCOCC1,-6.64
17,CSc1nnc(-c2ccc(NC(=O)CCc3ccccc3)cc2)n1C,8.84
18,CCC1Oc2ccccc2N(CC(=O)NC2CC2)C1=O (stereo not drawn),15.5
19,COc1ccc(CCNC(=O)C2CCN(S(=O)(=O)N3CCCCC3)CC2)cc1OC,4.52
20,O=C(NCC(c1ccco1)N1CCCCC1)C(c1ccccc1)c1ccccc1 (stereo not drawn),-4.9
21,CCCc1cc(=O)oc2cc3occ(C)c3cc12,6.79
22,C[C@H](NC(=O)[C@@H]1CSC2c3ccccc3C(=O)N21)C(=O)NCCc1ccc(F)cc1 (stereo partly drawn),14.8
23,CCOC1OC(=O)C(Cl)=C1Nc1cc(C)ccc1C (stereo not drawn),14.3

row,SMILES,"hERG current change (%, negative = inhibition) at 1uM [%]"
1,O=C(CN(C(=O)c1csnn1)c1ccc(F)c(Cl)c1)NC1CCCC1,6.49
2,COC(=O)c1sccc1NC(=O)CSCC(=O)O,8.36
3,CCN(CC)S(=O)(=O)c1cccc(-c2n[nH]c(=S)n2Cc2ccccc2)c1,12.4
4,O=C(Cc1ccccc1)NCCc1cnc[nH]1,10.2
5,Cc1cc(C)n2nc(SCC(=O)N(CCC#N)c3ccccc3F)nc2n1,8.64
6,O=C(O)CC12C[C@H]3C[C@@H](C1)CC(n1ncc(N4CCN(c5ccccc5)CC4)c(Cl)c1=O)(C3)C2,10.8
7,Cc1cccc(NC(=O)Nc2ccc3c(c2)OCO3)n1,15.6
8,O=C(NC1(C(F)(F)F)N=C2SCCN2C1=O)c1ccco1 (stereo not drawn),5.46
9,CN(C(=O)CSc1nnc(COc2ccccc2F)n1N)C1CCCCC1,7.85
10,COc1ccc(C)cc1NS(=O)(=O)c1ccc2c(c1)CCN2C(C)=O,9.16
11,CCOC(=O)c1c(NC(=O)Cc2ccccc2)sc2c1CCN(C)C2.Cl,-19.2
12,CC(C)CC(=O)Nc1ccc2c(c1)OCO2,14.6
13,Br.CCOC(=O)Cn1c(=N)n(Cc2ccccc2)c2ccccc21,-13.2
14,COc1ccccc1-n1c(/C=C/c2ccc(O)cc2)nc2ccccc2c1=O,13
15,COc1ccc(OC)c(NC(=O)C2C3C=CC(C3)C2C(=O)NCc2cccnc2)c1 (stereo not drawn),11.4
16,COCCn1c(SCC(=O)NCc2ccco2)nc2cccnc21,17.6
17,CN1CCN(c2sc(S(C)(=O)=O)nc2S(=O)(=O)c2ccc(Cl)cc2)CC1,4.58
18,O=C(O)c1ccccc1C(=O)Nc1ccc(S(=O)(=O)Nc2ccc(F)cc2)cc1,16.5
19,CCN(CC)S(=O)(=O)c1ccc(N2CC(C(=O)NCCC3=CCCCC3)CC2=O)cc1 (stereo not drawn),6.97
20,Cc1ccc(C(=O)N2CCOCC2)cc1[N+](=O)[O-],12.7
21,CCOc1ccc(NC(=O)CCN2CCN(S(=O)(=O)c3cc(Cl)ccc3OC)CC2)cc1,6.07
